Results on 42 sequences are retold here after publication PMC7819943, “Rice protein-binding microarrays: a tool to detect cis-acting elements near promoter regions in rice”.

The list shows a part of the results.

In this experiment the target is T1, OsWOX13 (Oryza sativa, UniProt Q5QMM3 1-267).
T1 sequence: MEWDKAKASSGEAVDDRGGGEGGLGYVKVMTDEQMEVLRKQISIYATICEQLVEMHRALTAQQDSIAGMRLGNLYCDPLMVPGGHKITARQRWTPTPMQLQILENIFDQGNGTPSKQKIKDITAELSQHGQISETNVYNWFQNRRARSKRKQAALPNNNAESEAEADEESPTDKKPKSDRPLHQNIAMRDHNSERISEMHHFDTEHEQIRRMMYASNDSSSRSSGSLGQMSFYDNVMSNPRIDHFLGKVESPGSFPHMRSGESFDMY
In words: protein-binding microarray (RPBM); PBS, 2% BSA, 51.3 ng/ul salmon testes DNA, 50 uM zinc acetate, 200 nM TF, 25 C, 1 h; high values mean tight binding. The note with it: protein: recombinant; tags: N-terminal polyhistidine and DsRed monomer fusion (pET32a); label: CyDye5-dUTP incorporated in the synthesized complementary strand; 3' TTTTT single-stranded linker to array surface; dsDNA, one strand shown. A digest of the protocol:
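The binding signal for each feature is its fluorescence intensity in arbitrary units. An Axon 4000B scanner was used to read a custom Agilent array that had been made double-stranded with Cy5-dUTP primer extension, blocked with 2% BSA, incubated at 25 °C for 1 h with 200 nM protein in PBS, 2% BSA, salmon testes DNA and 50 µM zinc acetate, and washed. The protein was an N-terminal polyhistidine–DsRed transcription factor fusion from E. coli BL21-CodonPlus, purified on Ni–NTA.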
With “CCGTCGACATGGCCAATCAATCAATCCTCCAGCAAATTCACGGAGTCACCTAGTGCAG”, the binding signal was 11400 fluorescence intensity (a.u.). Regarding “TAAACGTGGTAATTTGACAGTAGACACTGCACCGATTAAACGGAGTCACCTAGTGCAG”, the binding signal was 4210 fluorescence intensity (a.u.).

As to “AGATAATTGCACAAGTATTGGAAATATATATACTAGCACACGGAGTCACCTAGTGCAG”, the binding signal is 11600 fluorescence intensity (a.u.). Turning to “ACCGGTAATTGACTTCACTTATGACCTATAACCTATAACTCGGAGTCACCTAGTGCAG”, the binding signal was 40200 fluorescence intensity (a.u.). Turning to “GTCTAGTCTGTGATTGGGACCCAAGCAAGCATACAGAGAGCGGAGTCACCTAGTGCAG”, the binding signal was 17400 fluorescence intensity (a.u.). In the case of “GAGCTCACTTATATGGGTTAATTGATCCATGCCATTGCAACGGAGTCACCTAGTGCAG”, the binding signal is 7660 fluorescence intensity (a.u.). With “TACTCCGTAATTAAATAATTTCGTTTTGGAGCTCGACCTGCGGAGTCACCTAGTGCAG”, the binding signal is 23100 fluorescence intensity (a.u.). As to “CTCAAATTTTGCAAAATTATAATGGCATGGTTCCAATTTTCGGAGTCACCTAGTGCAG”, the binding signal was 15400 fluorescence intensity (a.u.). With “GGAAGCTGATTTAATTGTGGTTTGTCAGGTTGACTGCATTCGGAGTCACCTAGTGCAG”, the binding signal is 18300 fluorescence intensity (a.u.). As for “TACTGATGAACTGAAGATATGTAGTACCAGCTAACAGGGACGGAGTCACCTAGTGCAG”, the binding signal was 3320 fluorescence intensity (a.u.). With “CACTTCCTTCGTACCTGGGCTATCCTTCAGAAGCCTGGTTCGGAGTCACCTAGTGCAG”, the binding signal is 6490 fluorescence intensity (a.u.).

For “CATCAATCACTCCGGTAATTAATCACCAGCCTAATCTTTTCGGAGTCACCTAGTGCAG”, the binding signal is 46000 fluorescence intensity (a.u.). In the case of “GTGAGAATTGATGTATTCTCCTCCGGAAACACTTTTAATCCGGAGTCACCTAGTGCAG”, the binding signal is 6960 fluorescence intensity (a.u.). Take “CCTACAATCAAGTACATAATCCGTTTAATAATCTGTTTCACGGAGTCACCTAGTGCAG”: the binding signal was 5420 fluorescence intensity (a.u.). “GTTTGACAGACAGGTGGCGTAGCACCTAACCTGGATCAGACGGAGTCACCTAGTGCAG”: the binding signal was 20100 fluorescence intensity (a.u.). The result for “CCTAGCTAATCAAACTTATCCTCGAATTTCGAAAACACATCGGAGTCACCTAGTGCAG” reads 3550 fluorescence intensity (a.u.); that for “CAGTTGACTGTTTGATGTTGAGAAATCAACTTCAAACCTTCGGAGTCACCTAGTGCAG”, 6730 fluorescence intensity (a.u.). Next, “CTCTAATTGCTACATTTTAGGATGAGGGTGGTGTAACTGTCGGAGTCACCTAGTGCAG”: 35800 fluorescence intensity (a.u.); “TAAAATTAGCTTGTACCTCGTAATTGTCGTTGTTTACACCCGGAGTCACCTAGTGCAG”: 8240 fluorescence intensity (a.u.); “CTAAATTATGTTAATAACAGCTTCTCTTCATTCATGTAACCGGAGTCACCTAGTGCAG”: 27800 fluorescence intensity (a.u.). In the case of “TTGCTGATTAAAACTAAATGTTTTCTCGAAAGCTTCAGATCGGAGTCACCTAGTGCAG”, the binding signal was 18800 fluorescence intensity (a.u.).

In the case of “AATACCACAAATTAATCAGTCAAAGCATAAAACTAAAAGGCGGAGTCACCTAGTGCAG”, the binding signal was 4910 fluorescence intensity (a.u.).

Consider “TTATTGTAATTTACTGAAATGTTGGTCAAATTAAGTCAAGCGGAGTCACCTAGTGCAG”, for which the binding signal is 8320 fluorescence intensity (a.u.). For “ATGATAGATTTCCCGGCCCAATAACCCTCACCCCAGGTGACGGAGTCACCTAGTGCAG”, the binding signal was 5160 fluorescence intensity (a.u.). “GCTATTTCTCTTTGCCAATCACTTCCCCTTTCTTTTGTGACGGAGTCACCTAGTGCAG”: the binding signal is 4260 fluorescence intensity (a.u.). With “TGTTAGATGATAAAACATGATTAACACTTTATGCGTGACTCGGAGTCACCTAGTGCAG”, the binding signal is 8410 fluorescence intensity (a.u.). The result for “TTTTGATCATCCATTTTGTCTATTATCTGTGTCTAACTAACGGAGTCACCTAGTGCAG” reads 5580 fluorescence intensity (a.u.). As for “TAAGACTAATTATTCTTTTAGTAATAGACGACGTACTCGCCGGAGTCACCTAGTGCAG”, the binding signal was 22300 fluorescence intensity (a.u.). As to “GGGATTGGACAGGTCTCACGATTTCACAAGTGCGAACGGGCGGAGTCACCTAGTGCAG”, the binding signal is 5160 fluorescence intensity (a.u.). Turning to “GGCTTCAGATTATTGATTTTAAGCGAGAAAACACTCTTACCGGAGTCACCTAGTGCAG”, the binding signal was 3640 fluorescence intensity (a.u.). As for “AGCAACTAATTGGTCTACTCGATCTCTCCATCTTTTGGCCCGGAGTCACCTAGTGCAG”, the binding signal was 29000 fluorescence intensity (a.u.). In the case of “AAAATTGAAATTTTCAACATTAAATTTGGATTAGATTTTGCGGAGTCACCTAGTGCAG”, the binding signal was 19200 fluorescence intensity (a.u.). Take “AGGTCTTGATTACCAAGGGAAATTGTTTACACTAAACCTGCGGAGTCACCTAGTGCAG”: the binding signal is 33400 fluorescence intensity (a.u.). Regarding “GGTAATTTGTTTCTCCATCTTTCTTTCATTAGTGCTTGACCGGAGTCACCTAGTGCAG”, the binding signal was 26100 fluorescence intensity (a.u.). With “ATGTTCCAAATTAATCTGACAAGAGAGCAACAATCGTTGCCGGAGTCACCTAGTGCAG”, the binding signal was 3780 fluorescence intensity (a.u.). The result for “GAGTACAGATGAAATTTGTAGAAATTGGAATGGTCATGTACGGAGTCACCTAGTGCAG” reads 3810 fluorescence intensity (a.u.); that for “CCAAATGATTAATTTGGAGGACTTATTTGGACGTTTTGAACGGAGTCACCTAGTGCAG”, 42300 fluorescence intensity (a.u.); that for “TATAATTTAGAAAATAACAATGTATTCAATATATGGTTAACGGAGTCACCTAGTGCAG”, 7400 fluorescence intensity (a.u.).

As for “CTTTTAAAGGTGATTGATATTATTCCCTCCCTACCTATAGCGGAGTCACCTAGTGCAG”, the binding signal was 27200 fluorescence intensity (a.u.). For “CCTTAACTTGTCACTGATTACGAAATCGTCCTCCAACCACCGGAGTCACCTAGTGCAG”, the binding signal was 30500 fluorescence intensity (a.u.). For “AAAACTGACTGCAGAAATTGATTCAACCCAGTAAGGCCAGCGGAGTCACCTAGTGCAG”, the binding signal is 32400 fluorescence intensity (a.u.). In the case of “CCACAAGTAATTTGAAACAGATATACTTCCAGCTATGCATCGGAGTCACCTAGTGCAG”, the binding signal was 5390 fluorescence intensity (a.u.).
